The whole screen tested about 120,000 compounds, of which about 5,300 (4.4%) were called active. The shares of active, inactive and inconclusive entries below differ from those in the screen. The call rests on the fitted dose curve; in most records, active means well fitted inhibition curve with a large enough effect; inconclusive means small, poorly fitted or top-dose-only effect; inactive means no such curve, though single readings can be large or run the other way. Where the call is inconclusive, the potency comes from a doubtful curve fit.
Experiment: qHTS Primary assay for Inhibitors of Plasmodium falciparum Dd2 growth in vitro; further: nearly all actives have a fitted effect of over 65% in size
Settings: P. falciparum Dd2 growth, SYBR Green, 72 h; series mostly up to 28.9 µM
Summary of the method: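 Readout: SYBR Green fluorescence, 485 nm excitation, 535 nm emission, after ~16 h lysis at 37C. Before that, Dd2-infected red cells (2.5% hematocrit) grew 72 h with compound, 29 uM top final concentration.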
Potency means the concentration at half of the fitted maximal effect; tags describe the fitted curve by direction and shape.

SMILES | Potency
O=C(c1ccccc1)N1C[C@H]2OC(=O)N(CCc3cccc(Cl)c3)[C@H]2C1 | inactive
O=C(CCc1ccsc1)NC1CCCc2nc(-c3ccccc3)ncc21 (stereo not given) | inactive
CCOCCn1cc(C2CCN(S(=O)(=O)c3cccc(Cl)c3C)CC2)c2ccccc21 | inconclusive: 3.98 µM [inhibitor, single point]
CCOc1ccc(NCc2cccn2-c2nnc(N3CCC(C(=O)NCCc4ccc(OCC)c(OCC)c4)CC3)s2)cc1 | active: 6.31 µM
COc1ccc(-c2ccc3ncc(Nc4ccccc4OC)n3n2)cn1 | inconclusive: 5.62 µM [inhibitor, single point]
c1cncc(C2=NOC3(CCCN(Cc4cccc5ccccc45)C3)C2)c1 (stereo not given) | inconclusive: 10 µM [inhibitor, single point]
COc1ncccc1-c1nccn2c(C3CN(Cc4c[nH]c5ccccc45)C3)ncc12 | active: 3.55 µM
CC(C)c1cnc2c(c1SCC(=O)c1ccc(Cl)cc1)c(=O)n(C)c(=O)n2C | inconclusive: 17.8 µM [inhibitor, single point]
O=C(CCn1cncn1)N(CC1CCN(Cc2ccccc2F)CC1)CC1CCCO1 (stereo not given) | inactive
O=C(COc1ccc(-c2nnc3n2CCCC3)cc1)Nc1ccc(F)cc1 | active: 5.62 µM
CCOC(=O)c1c(Nc2ccc(OCC)cc2)nnc(-c2ccccc2)c1-c1ccccc1 | inconclusive: 11.2 µM [inhibitor, single point]
O=C(Nc1ccc(Cl)cc1)N1CCC(N2CCCNC2=O)CC1 | inactive
COc1ccc(Cl)cc1NC(=O)c1c(NCc2cccnc2)sc2c1CCCC2 | active: 11.2 µM
CC(C)(C)OC(=O)N1CCC(c2c(C(=O)NCCc3ccsc3)cnn2-c2ccc(F)cc2F)CC1 | active: 8.91 µM
O=C(c1cc(F)cc(Cl)c1)N1CCc2nc(-c3cccc(F)c3)[nH]c2C1 | inconclusive: 12.6 µM [inhibitor, partial curve, poor fit]
COc1cccc(C2C=C(c3ccc(C)cc3)Nc3c(C(=O)Nc4ccc(F)cc4)cnn32)c1OC (stereo not given) | inconclusive: 10 µM [inhibitor, single point]
OCC1(CN2CCCC2)CCN(Cc2ccc(Cl)c(F)c2)CC1 | inconclusive: 12.6 µM [inhibitor, partial curve]
COc1cc(NC(=O)c2cnc(-c3ccc(F)cc3)nc2-c2ccncc2)cc(OC)c1 | inconclusive: 8.91 µM [inhibitor, partial curve, poor fit]
CC(NC(=O)c1ccc(Cn2c(SCc3ccccc3)nc3cccnc32)cc1)c1ccccc1 (stereo not given) | inactive
O=C(NCCCN1CCCCC1)c1cccnc1N1CC2CC(C1)[C@H]1CCCC(=O)N1C2 (stereo not given in full) | inconclusive: 8.91 µM [inhibitor, single point]
CCc1ccc(NC(=O)c2sc3nc(-c4ccccc4)cn3c2C)cc1 | inconclusive: 17.8 µM [inhibitor, single point]
O=C(c1cc2cc(Cl)ccc2[nH]1)N1C[C@@H](CO)[C@H](c2ccccn2)C1 | inconclusive: 10 µM [inhibitor, single point]

SMILES | Potency
Cc1cc(C(=O)NCC(=O)N2CCCCCNC(=O)CC2c2ccccc2)nn1C (stereo not given) | inconclusive: 2.51 µM [inhibitor, full curve]
CCN(CC)CCNC(=O)Cn1cnc2sc(C)c(S(=O)(=O)N3CCN(c4ccccc4OC)CC3)c2c1=O | inconclusive: 17.8 µM [inhibitor, single point]
c1ccc(COc2ccccc2CN2CCC3(CCNCC3)C2)cc1 | inconclusive: 5.01 µM [inhibitor, partial curve, poor fit]
O=C1NC(=NC2CCCCC2)C2(CCCN(Cc3ccc(F)cc3)C2)N1c1cc(F)cc(F)c1 (stereo not given) | active: 7.94 µM
CN(C)C[C@@H]1CN(C)C[C@H]1NC(=O)Cc1cccc(Cl)c1 | inactive
CCOC(=O)N1CCc2c(sc(NCc3ccc(N(C)C)cc3)c2C(=O)Nc2ccccc2OCC)C1 | inconclusive: 11.2 µM [inhibitor, partial curve, poor fit]
COc1ccccc1Nc1nn2c(=O)c3ccc(C(=O)NC4CCCCC4)cc3nc2s1 | inconclusive: 3.98 µM [inhibitor, single point]
Cc1nn(C)c(C)c1CCC(=O)N1CCC(Cc2noc(-c3ccc(F)cc3)n2)C1 (stereo not given) | inconclusive: 0.501 µM [inhibitor, full curve, poor fit]
COc1ccc(CCC(=O)N2CCC(c3n[nH]c(=O)n3Cc3ccc(F)cc3)CC2)cc1 | inconclusive: 17.8 µM [inhibitor, single point]
O=C(NCCc1ccc2c(c1)OCO2)[C@H]1CNC[C@H](C(=O)N2CCCC2)C1 | inactive
COc1ccc2nc3n(c2c1)[C@@H](CNC(C)C)COC3 | inconclusive: 31.6 µM [inhibitor, single point]
CCCNC(=O)N(C1CCOCC1)C1CCN(S(=O)(=O)c2cc(F)ccc2C)CC1 | inconclusive: 3.55 µM [inhibitor, full curve, poor fit]
c1ccc(OCc2noc(-c3ccc(NCC4CCCCO4)nc3)n2)cc1 (stereo not given) | inconclusive: 2 µM [inhibitor, partial curve, poor fit]
O=C1NCCCCCCN(C(=O)Nc2ccc3c(c2)OCCO3)[C@H]2CCC[C@@H]12 | inactive
O=C(NC1CC1)c1ccc(Cn2ccn3nc4c(c3c2=O)CCCC4)cc1 | inconclusive: 3.16 µM [inhibitor, full curve, poor fit]
O=C1NC2(CCN(Cc3ccccc3C(F)(F)F)C2)COc2ccccc21 (stereo not given) | inactive
CN(Cc1ccccc1)Cc1cc(C[C@H]2CNCC[C@H]2CC(=O)N2CCN(c3ccccn3)CC2)no1 | inconclusive: 10 µM [inhibitor, single point]
O=C(c1cc(-c2ccc(Cl)cc2Cl)c2cccn2n1)N1CCN(c2ncccn2)CC1 | inactive
CN(Cc1ccccc1)C(=O)C[C@@H]1c2nc(NC(=O)C(C)(C)C)sc2C[C@@H]2[C@](C)(CO)[C@H](O)CC[C@]21C | inconclusive: 8.91 µM [inhibitor, partial curve]
Cc1cnc(C(=O)NC2C[C@H]3CC[C@@H](C2)N3C(=O)c2cnc(C)cn2)cn1 (stereo not given in full) | inactive
CCOC(=O)c1cc(-c2ccc(OC)cc2)n(CCC(=O)NC2CCC(C)CC2)c1C (stereo not given) | inconclusive: 17.8 µM [inhibitor, single point]
CCOc1ccc(-c2n[nH]c3c2C(c2cccs2)N(c2ccc(Br)cc2)C3=O)cc1 (stereo not given) | active: 3.55 µM

SMILES | Potency
Cc1ccc(-n2ncc(C(=O)NCCN3CCc4ccccc4C3)c2C2CCN(C(=O)OC(C)(C)C)CC2)c(C)c1 | inconclusive: 2.51 µM [inhibitor, full curve]
O=C(c1ccc(Cl)nc1)N1CCC2(CC1)CCN(Cc1cccs1)c1ccccc1O2 | inconclusive: 7.94 µM [inhibitor, partial curve, poor fit]
Cc1ccc2nc(-c3ccc(N4CCOCC4)cc3)c(Nc3ccccc3C)n2c1 | inconclusive: 11.2 µM [inhibitor, partial curve, poor fit]
c1ccc(N2CCC(Cn3ccnc3-c3cc4n(n3)CCCNC4)C2)cc1 (stereo not given) | inconclusive: 11.2 µM [inhibitor, single point]
Cc1cccc(OCC(=O)Nc2cccc(-c3nnc4n3CCCC4)c2)c1 | inconclusive: 11.2 µM [inhibitor, partial curve, poor fit]
O=C(NCCn1cccc1-c1nc(-c2ccc3c(c2)OCO3)no1)C1(c2ccccc2)CC1 | inconclusive: 2.51 µM [inhibitor, full curve, poor fit]
O=C(NCCn1cc(SCc2ccc(C(F)(F)F)cc2)c2ccccc21)c1cccs1 | inconclusive: 17.8 µM [inhibitor, single point]
Cc1ccc(CN2CCC3(CC2)COc2ccccc2C(=O)N3)cc1 | inconclusive: 10 µM [inhibitor, single point]
COc1cc(CN2Cc3ccccc3C2)ccc1OCC(O)CN1CCOCC1 (stereo not given) | inconclusive: 0.141 µM [inhibitor, full curve, poor fit]
CN(C)C(=O)N1CCC(c2nc(COc3ccccc3)nn2CCO)CC1 | inactive
COc1ccc(Nc2ccc3c(n2)CN(Cc2ccccc2F)C(=O)CO3)cc1 | inconclusive: 31.6 µM [inhibitor, single point]
Cc1ccsc1C(=O)N(C)CC1(C)CCOCC1 | inactive
CCOCCn1c(=O)n(CCCN(C)C)c2cc(C(=O)O)cnc21 | inactive
CCOc1ccc(NC(=O)N2CCc3cc(OC)c(OC)cc3C2CNC(=O)NC(C)C)cc1 (stereo not given) | inactive
Cc1[nH]c2ccccc2c1C1(O)C(=O)N(Cc2ccccc2)c2ccc(Br)cc21 (stereo not given) | inconclusive: 17.8 µM [inhibitor, single point]
COc1ccccc1CNc1ncnc2onc(-c3ccc(Cl)cc3)c12 | inconclusive: 7.08 µM [inhibitor, partial curve, poor fit]
COc1ccc(C(=O)NC2CCCN(c3cc(-c4ccccc4)[nH]n3)C2)cc1OC (stereo not given) | inactive
CC1(C(=O)N2CCN(Cc3ccc4c(c3)OCO4)CC2)CCCCC(=O)N1 (stereo not given) | inactive
Cc1ccc(N2CCN(C(=O)c3noc(-c4ccc[nH]c4=O)n3)CC2)cc1 | inconclusive: 3.98 µM [inhibitor, single point]
COc1cc(C(=O)N(CCCN(C)C)c2nc3c(OC)cccc3s2)cc(OC)c1OC | inconclusive: 17.8 µM [inhibitor, single point]
Cc1ccccc1S(=O)(=O)N1CCC(n2cnnc2C2CC2)CC1 | inactive

Reference: PubChem BioAssay AID1347417 (National Center for Advancing Translational Sciences (NCATS), 2020)
